Experimental data as given in paper PMC10189885, “Transcription activation by the resistance protein AlbA as a tool to evaluate derivatives of the antibiotic albicidin” (Chemical Science, 2023).
In brackets after ≈: the same amount, converted by molar mass.

B1: pAlbA 41 bp promoter fragment (dsDNA)
DNA 1: TTAGCGCTTGACCCTGACGTCACGTCAGGCAGCAGAGTCGT
DNA 2: ACGACTCTGCTGCCTGACGTGACGTCAGGGTCAAGCGCTAA

Tests used:
[1] = test system: B. subtilis DSM10; assay: MIC determination (microdilution); format: cell-based; details: Bacillus subtilis, DSM10, 20 h, read-out: MIC B. subtilis DSM10
Method: (§1) E. coli growth inhibition assay
(§2) liquid culture were conducted.
(§3) All assays were set up in triplicates.
(§4) scanner (Epson) with argusX.
(§5) overnight at 37 °C, 200 rpm shaking.
(§6) 95 μL of the inoculum were applied
(§7) Previously, the dry antibiotic compounds were
(§8) The antimicrobial effect of the solvent
(§9) Both microdilution trays and agar plates
(§10) DNA-Gyrase inhibition testing
(§11) The final DMSO concentration was 3%.
(§12) AlbA and its mutants were diluted in […]

[2] = test system: E. coli BW25113; assay: MIC determination (microdilution); format: cell-based; details: for MIC: Escherichia coli, BW25113, 20 h, read-out: MIC E. coli BW25113
Method: as §1, §2, §3, §4, §5, §6, §7, §8, §9, §10, §11, §12

[3] = test system: E. coli DSM1116; assay: MIC determination (microdilution); format: cell-based; details: for MIC: Escherichia coli, DSM1116, 20 h, read-out: MIC E. coli DSM1116
Method: as §1, §2, §3, §4, §5, §6, §7, §8, §9, §10, §11, §12

[4] = test system: S. Typhimurium TA100; assay: MIC determination (microdilution); format: cell-based; details: MHBII, 37 °C, 20 h; for MIC: Salmonella enterica, TYPHIMURIUM
Method: as §1, §2, §3, §4, §5, §6, §7, §8, §9, §10, §11, §12

[5] = biological target: T1, E. coli gyrase (Escherichia coli, UniProt P0AES4+P0AES6); format: biochemical; set-up: key: 0, equal to the activity of albicidin; -, lower than the activity of albicidin; +, higher than the activity of albicidin; details: 45 nM compound, relative to albicidin, 37 °C, 30 min
T1 construct: purchased Inspiralis Limited, Norwich, UK
Method: as §1, §2, §3, §4, §5, §6, §7, §8, §9, §10, §11, §12

[6] = test system: M. luteus DSM1790; assay: MIC determination (microdilution); format: cell-based; details: Micrococcus luteus, DSM1790, 20 h, read-out: MIC M. Luteus DSM1790
Method: as §1, §2, §3, §4, §5, §6, §7, §8, §9, §10, §11, §12

[7] = test system: M. phlei DSM750; assay: MIC determination (microdilution); format: cell-based; details: Mycolicibacterium phlei, DSM750, 20 h, read-out: MIC M. Phlei DSM750
Method: as §1, §2, §3, §4, §5, §6, §7, §8, §9, §10, §11, §12

[8] = biological target: AlbAS (short AlbA lacking the DNA-binding domain) (Klebsiella oxytoca, UniProt Q8KRS7 1-221); assay: EMSA; about 10.2 uM AlbAS; details: protein: recombinant; blunt

| Molecule | MIC [1] | MIC [2] | MIC [3] | MIC [4] | other results |
| --- | --- | --- | --- | --- | --- |
| COc1c(NC(=O)c2ccc(-n3cc(-c4ccc(NC(=O)[C@H](CC#N)NC(=O)c5ccc(NC(=O)/C(C)=C/c6ccc(O)cc6)cc5)cc4)nn3)c(OC)c2O)ccc(C(=O)O)c1O [Compound 12] | 1 mg/L (≈ 1.15 µM) | 1 mg/L (≈ 1.15 µM) | 0.5 mg/L (≈ 0.577 µM) | 0.125 mg/L (≈ 0.144 µM) | gyrase inhibition [5]: - |
| COc1c(NC(=O)c2ccc(NC(=O)c3ccc(NC(=O)[C@H](Cc4cnn[nH]4)NC(=O)c4ccc(NC(=O)c5ccc6cc(O)ccc6c5)cc4)cn3)c(OCCN)c2O)ccc(C(=O)O)c1O [Compound 13] | > 8 mg/L | 4 mg/L (≈ 4.32 µM) | 2 mg/L (≈ 2.16 µM) | 0.5 mg/L (≈ 0.541 µM) | MIC [6]: > 8 mg/L; MIC [7]: > 8 mg/L |
| guanidino-albicidin [Compound 20] |  |  |  |  | MIC E. coli BW25113 ([2]; MHBII, 37 °C, 20 h): 1 mg/L; MIC E. coli DSM1116 ([3]; MHBII, 37 °C, 20 h): 4 mg/L; MIC S. Typhimurium TA100 [4]: 0.063 mg/L |
| B1 |  |  |  |  | binding result [8]: no binding |
